Our source for the activation values is PubChem BioAssay AID1645887 (National Center for Advancing Translational Sciences (NCATS), 2021).

Several values for one entry are separate records, joined by “and”; a condition that tells them apart may be missing. Equal entries are not always repeated. The campaign covered roughly 16,000 compounds. About 40 (0.2%) were called active. About 1% were inconclusive and are not listed. Calls come from the whole dose curve; as a rule, active = well fitted activation curve with a large enough effect; inconclusive = small, poorly fitted or top-dose-only effect, or another doubt; inactive = no such curve, though single readings can be large or run the other way. Some of the results follow.
% is set by controls: 0 for no effect and ±100 for the full control effect.

Chain of UniProt Q8WZA2 (Q8WZA2 whole entry, looked up): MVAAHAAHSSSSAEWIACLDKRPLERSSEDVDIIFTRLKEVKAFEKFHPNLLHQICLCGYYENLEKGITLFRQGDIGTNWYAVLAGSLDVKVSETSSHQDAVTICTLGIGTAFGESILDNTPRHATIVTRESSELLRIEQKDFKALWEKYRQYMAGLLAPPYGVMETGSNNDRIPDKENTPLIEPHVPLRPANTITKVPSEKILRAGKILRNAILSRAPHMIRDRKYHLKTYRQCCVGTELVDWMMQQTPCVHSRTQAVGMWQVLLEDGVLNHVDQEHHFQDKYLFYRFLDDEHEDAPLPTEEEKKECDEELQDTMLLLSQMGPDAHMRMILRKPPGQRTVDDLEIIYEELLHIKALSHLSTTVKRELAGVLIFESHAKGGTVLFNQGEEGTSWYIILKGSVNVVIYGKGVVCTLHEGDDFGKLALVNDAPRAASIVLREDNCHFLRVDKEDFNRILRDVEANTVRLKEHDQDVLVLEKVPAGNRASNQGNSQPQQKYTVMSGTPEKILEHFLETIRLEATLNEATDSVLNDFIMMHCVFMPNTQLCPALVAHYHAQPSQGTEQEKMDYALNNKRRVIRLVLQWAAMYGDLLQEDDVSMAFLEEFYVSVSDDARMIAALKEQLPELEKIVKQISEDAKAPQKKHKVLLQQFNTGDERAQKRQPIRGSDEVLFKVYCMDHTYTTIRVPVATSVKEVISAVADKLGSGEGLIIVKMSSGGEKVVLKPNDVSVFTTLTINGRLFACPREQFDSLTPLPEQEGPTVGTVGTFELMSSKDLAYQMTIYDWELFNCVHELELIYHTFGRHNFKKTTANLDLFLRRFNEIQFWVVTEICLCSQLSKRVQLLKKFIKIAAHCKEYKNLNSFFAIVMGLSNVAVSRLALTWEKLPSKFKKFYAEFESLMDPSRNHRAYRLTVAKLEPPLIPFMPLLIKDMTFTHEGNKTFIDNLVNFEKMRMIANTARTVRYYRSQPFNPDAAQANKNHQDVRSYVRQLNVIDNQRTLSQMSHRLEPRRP

The assay deals with Rap guanine nucleotide exchange factor 4 (Homo sapiens) (UniProt Q8WZA2). Put plainly: Validation qHTS for agonist of cAMP-regulated guanine nucleotide exchange factor 4 (EPAC2).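 Note: exchange makes BODIPY-GDP fluorescence drop when released from Rap1B; series mostly up to about 150 µM.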 Particulars: EPAC2 Rap1B BODIPY-GDP exchange, fluorescence; activation: hits give high values. In a few lines:
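Signal normalized against 6.5 mM cAMP as agonist control. Mix of EPAC2 (100 nM), RAP1B-BODIPY-GDP (250 nM) and GDP (50 uM) was read kinetically at 480/540 nm, every 5 min over 30 min, after 5 min room-temperature incubation with compound.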
On the technique in general: In qHTS, concentration-response curves come from the screen itself.
As to `COc1cccc(Nc2ncc3nc(C)c(=O)n(CCC#N)c3n2)c1`, the activation was inactive: -14.2%.

In the case of `Oc1cc(O)cc(/C=C/c2ccc(O)c(O)c2)c1`, the activation is inactive: -20% and inactive: -25.6%.

With `Cc1c(CN2CCOc3ccc(C(C)(O)COc4ccccc4)cc3C2)cnn1C` (configuration not stated), the activation is inactive: -5.48%.

In the case of `COc1ccc(-n2c(=O)cnc3cnc(Nc4ccccc4)nc32)cc1`, the activation was inactive: -30%.

As for `CCCCN1CC[C@H]2C=CC[C@@H](C(=O)NC3CCCCC3)[C@H]2C1=O`, the activation was inactive: -18.1%.

In the case of `COC(=O)N1CCC2(CCN(C(=O)Nc3cccc(C#N)c3)CC2)CC1`, the activation is inactive: -9.08%.

For `CC(C)NC(=O)N1CC[C@@]2(CCCN(C(=O)c3cc(C(F)(F)F)cc(C(F)(F)F)c3)C2)C1`, the activation was inactive: -7.69%.

On to `CC(=O)N1CCC[C@@]2(CCN(C(c3ccccc3)c3ccccc3)C2)C1`, for which the activation was inactive: -10.1%.

`C[C@@H](C[C@H](N)C(=O)O)C(=O)O`: the activation is inactive: 11.6%.

Consider `CC(C)(S)[C@H](N)C(=O)O`, for which the activation was inactive: 1.22%.

Consider `Clc1cc(Cl)c(OCC#CI)cc1Cl`, for which the activation was inactive: -6.15%.

Turning to `O=C(C[C@H]1C(=O)N(Cc2ccccc2)C[C@@H]1Cc1ccccc1)Nc1ccccc1`, the activation is inactive: -27.3%.

For `O=C(O)/C=C(\CC(=O)O)C(=O)O`, the activation is inactive: 3.85% and inactive: 0.532%.

On to `CN(C)c1ncnc2ccc(-c3cccc(NS(C)(=O)=O)c3)cc12`, for which the activation is inactive: -5.03%.

As to `COc1ccc(-c2nc3cnc(Nc4ccccc4)nc3n(C[C@H]3CCCO3)c2=O)cc1`, the activation was inactive: 1.11%.

Consider `C=C1CCC(=O)C(C)CCC2C1CC2(C)C` (configuration not stated), for which the activation was inactive: -0.201%.

On to `N=C(N)c1ccc(OCCCCCOc2ccc(C(=N)N)cc2)cc1` (tested in a mixture with another compound), for which the activation is inactive: -12.6%.

Take `OCC(O)C(O)C(O)CO` (configuration not stated): the activation was inactive: -1.94%.

In the case of `Cc1cccc2cc(CN(C(=O)c3ccc(C(F)(F)F)cc3)C3CC3)c(N3CCC(O)CC3)nc12`, the activation is inactive: -20.5%.

Take `COc1cc(CNc2nc(C)c(-c3ccn(C4Cc5ccccc5C4)n3)s2)cc2c1OCO2`: the activation was inactive: 13.5%.

For the compound `COc1cccc(Nc2ncc3nc(C)c(=O)n(Cc4cccs4)c3n2)c1`, the activation was inactive: -6.59%.

`CSc1nnc(CNC(=O)c2cccc3ccccc23)n1-c1ccccc1C`: the activation is inactive: -11.2%.

Turning to `O=c1oc2ccccc2cc1O`, the activation was inactive: -7.15%.

For the compound `CN(C)CCCN1c2ccccc2C(C)(C)c2ccccc21`, the activation was inactive: -8.74%.

As to `COc1cccc(/C=C/C(=O)O)c1C(C)C`, the activation was inactive: -6.75%.

Turning to `O=c1c(-c2ccc(F)cc2)nc2cnc(N3CCNCC3)nc2n1C1CC1`, the activation was inactive: 0.287%.

Turning to `COc1ccccc1CN1CCCC2(CCN(C(=O)c3csnn3)CC2)C1`, the activation is inactive: -5.89%.

For the compound `O=c1c(-c2ccccc2)c1-c1ccccc1`, the activation was inactive: -4.61%.

`CCn1c(-c2ccccc2F)nc2cc(C(=O)N3CCNC(=O)C3CC(=O)OC)cc(NC(C)=O)c21` (configuration not stated): the activation is inactive: 1.31%.

Turning to `C=C1C(=O)OC2C1CC/C(C)=C/CCC1(C)OC21` (configuration not stated), the activation was inactive: -0.461%.

Regarding `O=C1c2ccccc2CCC1CNCCc1ccc(O)cc1` (configuration not stated), the activation is inactive: -18.3%.

With `COC(=O)C1OC(=O)C2OC23[C@]2(C)C(O)CC4C(C)(C)C(OC(C)=O)CC(OC(C)=O)[C@@]4(C)C2CC[C@@]13C` (some centres not stated), the activation was inactive: -9.8% and inactive: -50.1%.

Turning to `Cc1cnc(CNc2cc(-c3cccnc3)ncn2)cn1`, the activation was inactive: 4.43%.

Consider `O=C(O)CCc1cc(I)c(O)c(I)c1`, for which the activation was inactive: -3.33%.

Take `Cc1ccc(C(C)C)c(O)c1`: the activation was inactive: -2.95%.

In the case of `COCc1ccc(CN2CCOc3c(O)cc(-c4cc(C)c5ccc(F)cc5n4)cc3C2)o1`, the activation is inactive: 8.6%.

Turning to `CC/C=C\C/C=C\C/C=C\CCCCCCCC(=O)O`, the activation is inactive: -2.94% and inactive: 9.05% and inactive: -6.75%.

As to `COc1cc(O)c(C(=O)c2ccccc2)cc1O`, the activation was inactive: 1.34%.

With `CCn1cc(CN2Cc3ccccc3OC(c3ccccc3OC)C2)c(C)n1` (configuration not stated), the activation was inactive: -24.8%.

As to `O.O=C([O-])CC([S-])C(=O)[O-].[Au+].[Na+].[Na+]` (configuration not stated), the activation is inactive: -18.4%.

In the case of `Cn1c(=O)c(-c2ccccc2)nc2cnc(Oc3ccccc3)nc21`, the activation is inactive: 0.748%.

Regarding `COc1ccc2[nH]cc(CCNc3ncnc4ccc(-c5c(C)noc5C)cc34)c2c1`, the activation is inactive: 9.93%.

Turning to `Cc1noc(C)c1C(=O)N1CCC2(CCCN(C(c3ccccc3)c3ccccc3)C2)CC1`, the activation is inactive: -12%.

On to `COc1ccc(CN2CCC3(CCC(CNC(=O)C4CCCO4)O3)CC2)c(C)c1C` (configuration not stated), for which the activation is inactive: -3.88%.

For `FC(F)(F)c1ccccc1-c1cncnc1NCc1ccccc1`, the activation is inactive: -7.08%.

`Cc1ccc(C(=O)N(Cc2cc3cc4c(cc3nc2N2CCOCC2)CCC4)CC2CCCO2)s1` (configuration not stated): the activation is inactive: 6.08%.

As for `O=C1CCCC2[C@@H]3CCC[N@+]4([O-])CCC[C@H](CN12)C34` (some centres not stated), the activation was inactive: -9.87%.

As for `C[N+]1(C)CCN(CC(O)(c2ccccc2)C2CCCCC2)CC1` (configuration not stated), the activation is inactive: -6.07%.

As for `COc1cc(=O)n2c(c1C(=O)NC(C)c1ccco1)CCN(C(=O)c1cc(C)cc(C)c1)CC2` (configuration not stated), the activation was inactive: -3.51%.

Take `COCC(=O)N1CCC2(CCCN(c3cccc(-c4ccccc4)c3)C2)CC1`: the activation was inactive: -4.35%.

For `CCOCCn1c(N2CCCN(C)CC2)nc2ccccc21`, the activation is inactive: 3.02%.

With `COc1ccc(OC)c(-c2cc(Cl)c3c(c2)CC(CNC(=O)c2coc4c2C(=O)CCC4)O3)c1` (configuration not stated), the activation was inactive: 4.71%.

As to `Cc1ccccc1CN1[C@H]2CCCC[C@@H]2OCCS1(=O)=O`, the activation is inactive: -11.5%.

As to `COCCn1c(=O)c(C)nc2cnc(Oc3ccc(OC)cc3)nc21`, the activation is inactive: -3.69%.

Turning to `O=C(c1cnccn1)N1CCC2(CC1)CN(c1ccncc1)C2`, the activation is inactive: 7.9%.

With `O=S(=O)(c1cccc2c(Cl)cccc12)N1CCCNCC1`, the activation is inactive: -12.1% and inactive: -7.89% and inactive: -23.1%.

Regarding `CCCc1c(OCCCOc2ccc(OCC(=O)O)cc2)ccc(C(C)=O)c1O`, the activation was inactive: -57.2%.

For the compound `COc1ccc2[nH]cc(CCNc3ncnc4ccc(-c5ccccc5C#N)cc34)c2c1`, the activation is inactive: 2.83%.

`O=C1CC2(CCCC2)CC(=O)N1CCCCNCC1COc2ccccc2O1` (configuration not stated): the activation is inactive: 0.718%.

As to `CC1=C(C(=O)O)N2C(=O)[C@@H](NC(=O)[C@H](N)c3ccccc3)[C@H]2SC1`, the activation is inactive: -1.92%.

As to `COc1cccc(C(=O)NCC2Cc3cccc(-c4nc(C)cnc4C)c3O2)c1OC` (configuration not stated), the activation is inactive: -1.46%.

Take `CSc1ccccc1C(=O)NCC1Cc2cc(F)cc(-c3cnccn3)c2O1` (configuration not stated): the activation was inactive: -20.6%.

As to `NC(N)=[N+]1CCc2ccccc2C1`, the activation is inactive: -25.6%.

For `Cc1noc(C)c1-c1cncnc1NCc1cccnc1`, the activation was inactive: -20.9%.

For `O=C1CCC[C@@H]2C[C@@]3(C[C@@H]4CCN1[C@H]24)Nc1ccccc1NC3=NC1CCCCC1`, the activation is inactive: -10.5%.

Regarding `CC[C@H](C)C(=O)O[C@H]1C[C@H](O)C=C2C=C[C@H](C)[C@H](CC[C@@H](O)C[C@@H](O)CC(=O)O)[C@H]21`, the activation was inactive: 7.96%.

As for `Cc1cccn2c(=O)c(-c3nnn[nH]3)cnc12`, the activation is inactive: 2.42%.

For the compound `COc1cc2nc(N(C)C)c(CNCc3cccc4ccccc34)cc2c(OC)c1OC`, the activation is inactive: -13.9%.

Take `COc1ccccc1-c1ccc(C(=O)N(C)C(C)c2ccon2)c(N2CCN(c3ccccc3F)CC2)n1` (configuration not stated): the activation is inactive: -23.4%.

As for `C=C1C(=O)OC2CC1C(OC(C)=O)CC(C)=CCCC(C)=CCC[C@@]2(C)O` (some centres not stated), the activation was inactive: -9.58%.

For the compound `Cc1ccc(S(=O)(=O)/C=C/C#N)cc1`, the activation is inactive: 4.92% and inactive: -22.1%.

As for `O=C(/C=C/c1ccc(O)cc1)c1c(O)cc(O)cc1O`, the activation was inactive: -3.54%.

For `CCCn1c(=O)c2[nH]c(-c3ccc(OCC(=O)NCCN)cc3)nc2n(CCC)c1=O`, the activation was inactive: -100%.

With `CC(C)(C)NCC(O)COc1cccc2c1CC(O)C(O)C2` (configuration not stated), the activation is inactive: 9.61%.

As for `COC(=O)[C@@H]1CCCN1Cc1ccc2c(c1)CN(Cc1cccn1-c1ccccn1)CCO2`, the activation was inactive: -7.02%.

Turning to `c1cncc(CNc2ncnc3ccc(-c4cccnc4)cc23)c1`, the activation was inactive: 4.81%.

Regarding `C=C[C@]1(C)C[C@@H](OC(=O)CO)[C@]2(C)[C@H](C)CC[C@]3(CCC(=O)[C@H]32)[C@@H](C)[C@@H]1O`, the activation is inactive: 21.3%.

As to `Cc1noc(C)c1C(=O)N1CCC[C@@]2(CCN(Cc3ccc(C#N)cc3)C2)C1`, the activation is inactive: -10%.

Turning to `Cc1cccc(C)c1NC(=O)C[N+](C)(C)C`, the activation is inactive: -36.6%.

On to `O=C(OCCN1CCCCC1)c1c[nH]c2ccccc12`, for which the activation is inactive: -15.4% and inactive: 7.2%.

With `O=C(c1cc(C(F)(F)F)cc(C(F)(F)F)c1)N1CCC2(CCN(Cc3nccs3)CC2)CC1`, the activation is inactive: -8.68%.

For the compound `N[C@H](C(=O)O)c1cccc(O)c1`, the activation is inactive: -2.02% and inactive: -6.96% and inactive: 7.11%.

`Nc1nc(Nc2ccccc2)nc2c1ncn2[C@@H]1O[C@H](CO)[C@@H](O)[C@H]1O`: the activation is inactive: -15.2%.

With `OC1(c2cccnc2)CCN(Cc2ccc3c(c2)CN(Cc2cc(F)cc(F)c2)CCO3)CC1`, the activation is inactive: -25%.

Take `COc1cc(CCNC(C)=O)c(C(=O)/C=C/c2cccc(OC)c2OC)cc1OC`: the activation is inactive: -38.7%.

With `Cc1cc(O)cc(O)c1C(=O)O`, the activation is inactive: -4.11%.

Regarding `CO[C@H]1[C@H](NC(=O)c2cccs2)c2ccccc2C12CCN(Cc1cccn1-c1ccccn1)CC2`, the activation was inactive: -17.5%.
